Measurements taken from PubChem BioAssay AID686971 (National Center for Advancing Translational Sciences (NCATS), 2013).
In all, about 360,000 compounds went through this assay and about 7,500 (2.1%) were called active. The shares of active, inactive and inconclusive entries below differ from those in the screen. Calls come from the whole dose curve; as a rule, active = well fitted cell-killing curve with a large enough effect; inconclusive = small, poorly fitted or top-dose-only effect, or effect the other way, or another doubt; inactive = no such curve, though single readings can be large or run the other way. Potencies of inconclusive entries are left out as doubtful fits.

Assay: qHTS for induction of synthetic lethality in tumor cells producing 2HG: qHTS for the HT-1080-IDH1KD cell line;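 for activity, negative = toxicity: 0% = DMSO wells and -100% = cell-free medium wells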
Conditions: HT-1080 IDH1 knockdown viability, ATP luminescence, 48 h; activity, negative = toxicity: at 46.1 µM (top of the series) unless noted
Outline: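 After a 2 h attachment period, IDH1KD HT-1080 cells took pin-transferred compound for 48 h at 37 °C; ATP-based luminescence after 10 min room-temperature reagent incubation reported viability.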
Potency is the fitted concentration of half-maximal effect; tags give direction and shape of the fitted curve.

SMILES	Potency	activity, negative = toxicity
COc1ccc(CNC(=O)Nc2nc(C(N)CCc3ccccc3)cs2)cc1 (configuration not stated)	inconclusive [cytotoxic, single point]	
C(=Cc1c[nH]c2ccccc12)c1nccc2ccccc12	inconclusive [cytotoxic, single point]	
CN1CCN(c2ccc(S(=O)(=O)N3CCCCC3)cc2NC(=O)c2ccc(C#N)cc2)CC1	inactive	
Cc1ccccc1-c1cc2nc(NCCCN(C)C)n(C)c(=O)c2s1	inconclusive [cytotoxic, single point]	
NCCN(Cc1ccc(Cl)c(Cl)c1)c1ccc(Br)cn1	active: 10 µM	
CCCC(=O)N1CCCC(c2cc(C(=O)NCc3ccc(F)cc3)no2)C1 (configuration not stated)	inactive	
CC(C)CC(N)c1csc(NC(=O)c2cc(C(C)(C)C)nn2Cc2ccccc2)n1 (configuration not stated)	active: 16.4 µM	
Cc1c(O)ccc(C(=O)COc2ccc(F)cc2)c1O	inconclusive [cytotoxic, single point]	
Cc1cc(C)c(N2C(=O)CC(Sc3ccccc3N)C2=O)c(C)c1 (configuration not stated)	inconclusive [cytotoxic, single point]	
O=C(Nc1ccc(N2CCOCC2)cc1)c1cc2c(s1)CCCCC2	active: 7.31 µM	
Nc1c(-c2ccc(Cl)cc2)cnn1-c1cccc([N+](=O)[O-])c1	inactive	
COc1ccc(C2c3[nH]c4ccccc4c3CCN2C(=O)c2cn3ccccc3n2)c(F)c1 (configuration not stated)	inconclusive [cytotoxic, partial curve]	
CCOc1ccc(NC(=S)N(Cc2ccc(Cl)cc2)Cc2ccco2)cc1	inconclusive [cytotoxic, single point]	
Cc1ccc2c(c1)C(=O)C(=O)N2Cc1ccc(Cl)cc1	inconclusive [cytotoxic, single point]	
CSc1ccc(/C=C/C(=O)c2ccc(O)cc2)cc1	inconclusive [cytotoxic, single point]	
CCOC(=O)N1CCN(c2c(F)cc3[nH]c(=S)[nH]c3c2Br)CC1	inconclusive [cytotoxic, single point]	
Cc1cc(NC(=O)Cn2nnc3sc4c(c3c2=O)CCCC4)no1	inactive	
S=C(NC1CCCCC1)N1CCCCC1		inconclusive: 9.89% [cytotoxic]
COc1ccc(NC(=O)CN2C(=O)NC(C)(C3CC3)C2=O)cc1S(=O)(=O)N1CCCCC1 (configuration not stated)	inactive	
O=C(CSc1nncs1)NC(=O)NC1CCCC1	inactive	
Cc1ccc(NC(=O)CSc2nnc(-c3ccco3)c(-c3ccco3)n2)cc1	active: 5.17 µM	
Cc1ccc(OCC(=O)NCCCNC(=O)c2cccnc2)cc1	inconclusive [cytotoxic, single point]	
CCCc1c(-c2ccc(F)cc2F)ncn1Cc1ccccc1OC	inconclusive [cytotoxic, partial curve]	
CCSc1ccc2nnc(-c3cccc(F)c3)n2n1	inconclusive [cytotoxic, single point]	

SMILES	Potency	activity, negative = toxicity
N#Cc1ccc(CN2C=NS(=O)(=O)c3ccccc32)cc1	inactive	
NC(Cc1ccccc1)c1csc(Nc2ccc(C(F)(F)F)cn2)n1 (configuration not stated)	inconclusive [cytotoxic, single point]	
O=C(O)CSc1ccc(NC(=O)Nc2ccccc2F)cc1	inconclusive [cytotoxic, partial curve]	
CC(=O)c1cccc(NC(=O)C2CCCN2S(=O)(=O)c2cccc3cccnc23)c1 (configuration not stated)	inactive	
Cc1cccc(C)c1NC(=O)c1sccc1SCc1cccc(C(F)(F)F)c1	inconclusive [cytotoxic, single point]	
Cc1cc(C)c2c(C)c(C(=O)Nc3c(C)n(C)n(-c4ccccc4)c3=O)oc2c1	inactive	
Oc1ccc(N=Nc2ccc3c(c2)OCCO3)c(O)c1	inconclusive [cytotoxic, single point]	
COc1ccc(-c2cc3c(c4c2ccn4C)C2CCC3C2)cc1F (configuration not stated)	inconclusive [cytotoxic, single point]	
CCOC(=O)C(C(=O)OCC)N(C#N)c1nc(C)cc(C)n1		inactive: 8.85% [at 9.24 µM]
N#Cc1ccccc1Cn1cc(/C=C/[N+](=O)[O-])c2ccccc21	active: 23.1 µM	
COC(=O)c1ccc(C(NC(=O)OCc2ccccc2)/C(F)=C/[C@@H](C)C(=O)NCc2ccc(OC)c(OC)c2)cc1 (some centres not stated)	inconclusive [cytotoxic, single point]	
Brc1ccc(/C=C/C=N/Nc2nc3ccccc3s2)cc1	inconclusive [cytotoxic, single point]	
O=S(Cc1ccc(Br)cc1)Cc1nnc(SCc2ccc(Br)cc2)n1-c1ccccc1 (configuration not stated)	inconclusive [cytotoxic, single point]	
Cc1ccccc1Oc1ccc2c(c1)[C@@H]1C[C@H](N(C)C(=S)Nc3ccc(F)cc3)[C@H]([C@H](C)O)C(=O)N1CC2	inconclusive [cytotoxic, single point]	
O=[N+]([O-])c1c(Nc2ccc(O)cc2)cc(Cl)c2nonc12	active: 5.8 µM	
CCCC[n+]1ccn(C2=C([O-])c3ccccc3C(=O)/C2=N\S(=O)(=O)c2ccc(Cl)cc2)c1	inconclusive [cytotoxic, single point]	
CC(C)n1c(-c2cccs2)nc2ccccc21	inactive	
CC(C)(C)c1cc(Cl)ccc1OCCOCCN1CCCC1	active: 18.4 µM	
CN(C)S(=O)(=O)c1cccc(NC(=S)NNC(=O)c2cc3ccccc3cc2O)c1	inconclusive [cytotoxic, partial curve]	
CN(Cc1ccccc1)C(=O)c1ccc(Nc2nc(C(N)Cc3ccccc3)cs2)nc1 (configuration not stated)	active: 20.6 µM	
O=C(Nc1ccc(Cl)cc1)Nc1ccc2c(c1)N1CCN=C1S2	active: 32.6 µM	
Nc1c(N(CCCO)C(=O)CCCN2C(=O)c3cccc4cccc(c34)C2=O)c(=O)[nH]c(=O)n1Cc1ccccc1	inactive	
CC(/C=N/NC(=O)c1n[nH]c2c1CCC2)=C\c1ccccc1	active: 0.366 µM	
